T1: UNK ZnF1-3 (human, UniProt Q9C0B0 31-174)
T1 sequence: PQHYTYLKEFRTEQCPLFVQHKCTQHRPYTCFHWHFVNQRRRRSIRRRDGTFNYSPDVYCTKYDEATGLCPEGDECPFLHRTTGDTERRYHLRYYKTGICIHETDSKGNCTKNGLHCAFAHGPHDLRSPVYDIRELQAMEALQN

B1: chr9:116041357:116041358:+_ENSG00000136875_ENST00000374198|hu_hu|motif|central (ssRNA)
RNA: GGGAGUUCUACAGUCCGACGAUCUUCUCUUCUUUCAGCAGGACCCUCUCCAAAAAGUGUGAUGGGUUCCCCCAAGGCUCGGAGGCAAGCUUUGACCUCUGAGUCAUCUGUGGAAACAUUGAUCUGCCGGGCUCGCUUCCUUCUCAACAGAGGAUUGAGCAUCA
B2: chr7:28127222:28127223:-_ENSMUSG00000089832_ENSMUST00000003857|mus_hu|FALSE|FALSE (ssRNA)
RNA: GGGAGUUCUACAGUCCGACGAUCAUUGGGGAGGGUGACUUUGGCUUCCAGAAAAGAGGGAAGGUGGGGACCUAGUAACAAUAACCAUUUAUUCCAAGGAGGCCCUGGCCCUGAACCCGGGGUUCCCACAGGAAUCAGGGAGGCCAACAGAGGAUUGAGCAUCA
B3: chr15:76588000:76588001:-_ENSG00000140374_ENST00000560595|hu_hu|FALSE|FALSE (ssRNA)
RNA: GGGAGUUCUACAGUCCGACGAUCGGACACUUCACCUCCAAGGCGUGUGGCUGCAGUAAUGGUAUUUAAAGUAAUGGGUGCUAGGGAAUCAUUUGCAUGCUCAGCUAUUACCAGGGUACUCUGAAAUCGUAGCAAUGAGGCCGCCAACAGAGGAUUGAGCAUCA
B4: chr16:8858281:8858282:+_ENSMUSG00000022507_ENSMUST00000023150|mus_hu|FALSE|FALSE (ssRNA)
RNA: GGGAGUUCUACAGUCCGACGAUCGACAAAUUCAUUAGGUGCAUUUGAAAGUAAACGCAAUGGAAAAAAGUAACAAAUGCUAAAGUUUUCUAAAAGUUUAAUGAAGCCAAUAAGGCAUAUAAAUUGUGUUCUGGCAGACAUUAACAACAGAGGAUUGAGCAUCA
B5: chr10:94110891:94110892:+_ENSG00000198060_ENST00000358935|hu_mus|FALSE|FALSE (ssRNA)
RNA: GGGAGUUCUACAGUCCGACGAUCCUCUGGAUAAUUUAGGAUUUUGCGGUGUGCCUGACGUAAAUAUUGCUGCUGUUUGAAGUAAACCUUAAAUGCUCCUUUUAUGGCAACAAAAGCAAUUCCACCCAAGAUUGUCCUUUGUAACAACAGAGGAUUGAGCAUCA
B6: 27598453_27598573_1137_CDS_ENSG00000115234_ENST00000233575|human|control|control (ssRNA)
RNA: GGGAGUUCUACAGUCCGACGAUCGGAGGUGACCCGCCAGCAUCGCAUGCGGGUGACCCGGAAGGAGCCUUCUCGGAGUUGCUGGCCAGGCAGGCGGAGCUGCAGGCUGAGCUCACUGUUGCCCGCGCUCACCACCACAGGACACAACAGAGGAUUGAGCAUCA
B7: 96234110_96239110_754_CDS_ENSMUSG00000032412_ENSMUST00000034983|mouse|control|control (ssRNA)
RNA: GGGAGUUCUACAGUCCGACGAUCAACAUGCCGUUUUUUCCCAUAAUAUGGAAAAUACUUUAAGUCUAAAACUCCAAAUUCAGGAUAAGUUGCUAUAGUUGCGUUUUCUUCCUUUGGCAAACACGAUAUUUGUGGAUAUCCGUCCAACAGAGGAUUGAGCAUCA
B8: chr6:108204272:108204273:-_ENSG00000025796_ENST00000369002|hu_hu|FALSE|FALSE (ssRNA)
RNA: GGGAGUUCUACAGUCCGACGAUCUUGCUCUCUAUCAGAGUCUCUGUCACUACCAUCAUCUUUCUCACUUUGGGAAUCUCUAUUGGUUUCUUCUUCUUCAGAAUCACUGCCCUUAUCUGAAACUUCUUCUUCAUCUUCCUUUACCAACAGAGGAUUGAGCAUCA
B9: chr1:178664722:178664723:-_ENSMUSG00000057335_ENSMUST00000057037|mus_mus|FALSE|FALSE (ssRNA)
RNA: GGGAGUUCUACAGUCCGACGAUCAGUCGUUGUUGCUGUCUUGCAGGGUCCUUACAAAUGUGUAAGACUGACAAAGGGUUACUAUGGACCUACAGGGAAACACAGAAGCAAUUCAAUGACUGGGAGUGCAACUAUCAACUACUCCAACAGAGGAUUGAGCAUCA
B10: chr1:94914716:94914717:-_ENSMUSG00000014602_ENSMUST00000171796|mus_hu|motif|central (ssRNA)
RNA: GGGAGUUCUACAGUCCGACGAUCUAAAUAGAACAAGUCUUAUAGUUAAUUUCCGAGUUGACUGUUUCAAUGUCACGGACGGACGUAUAUUAAUUAUAAGUCUGUCUAUGCUUAAAAAAAUAUUAGAACGGCAGCAAGAACCCCCAACAGAGGAUUGAGCAUCA
B11: chr2:29787112:29787113:+_ENSMUSG00000026790_ENSMUST00000113756|mus_mus|motif|central (ssRNA)
RNA: GGGAGUUCUACAGUCCGACGAUCGCAAUGAGAUAGGAAUUCUGAUUGUCAGGCCGGAUGGUCGUGAGGAACAAGUGGCCGGUAGGAAACAGACAUGGGAGGUUUCCCCGGGCACCAAGGAGAACACUGCUUCCUGCAGGACCCCAACAGAGGAUUGAGCAUCA
B12: chr8:95500983:95500984:-_ENSG00000164944_ENST00000437199|hu_hu|hu_hu_hu_mus_True|1_48 (ssRNA)
RNA: GGGAGUUCUACAGUCCGACGAUCAGAACACAUCUAUCGAGUAAAGGACCGUACAUGACGGCCUCUACCACUGCCUCCACUAACAAAACUUUCCUCUGAGCCUCCACUGCCGCUAUUUGUACUAGCCCAGGACGGUCCCAAGUCCAACAGAGGAUUGAGCAUCA
B13: chr11:102221366:102221367:+_ENSG00000110330_ENST00000227758|hu_hu|motif|central (ssRNA)
RNA: GGGAGUUCUACAGUCCGACGAUCCCAGUACAUAAAUGUUCUCAUUCGAGCUGCAUGUGUCUGCAUGCUCAGAUUUGAAAUGCGGAACCUCAGAGUUUCUAGAGAAUUUUCCAAAAAUGGACAGUUGGGAAAAUGCCUCCGGUGCAACAGAGGAUUGAGCAUCA
B14: 20567905_20568025_938_CDS_ENSG00000121741_ENST00000382871|human|control|control (ssRNA)
RNA: GGGAGUUCUACAGUCCGACGAUCAAAAACGUCUCCUGCCACAUUCAUUCUACCAGGAUUAAAAGGUCCUACUCCAGUCUUGGUCUGUGAAGUUAAAGAUGGGGUGUAUGUUUGUAUAUUAACACCAAAAUUACUUGACUGCAGCAACAGAGGAUUGAGCAUCA

This is one part of the list.

Consider 14 molecules from paper PMC12136788.

This experiment deals with T1, UNK ZnF1-3. Put plainly: nsRBNS (natural sequence RNA bind-n-seq); RBNS binding buffer (assumed for nsRBNS): 25 mM Tris pH 7.5, 150 mM KCl, 3 mM MgCl2, 0.01% Triton X-100, 500 ug/ml BSA, 20 U/ml SUPERase-In, 4 C; UNK is unkempt and MSI1 is Musashi-1; names of the RNAs are library labels; protein concentration not given here; high values mean tight binding.
Molecule B1 returned a binding signal of 0.692 enrichment R. For B2 the value was 1.41 enrichment R; for B3, 1.13 enrichment R.

For the molecule B4, the binding signal was found to be 1.12 enrichment R. B5: the binding signal was 1 enrichment R. As for B6, the binding signal was found to be 0.825 enrichment R. For the molecule B7, the binding signal worked out at 0.805 enrichment R.

As for B8, the binding signal is 0.428 enrichment R. Under B9 stands 1.04 enrichment R; under B10, 1.68 enrichment R; under B11, 1.02 enrichment R.

The molecule B12 yielded a binding signal of 1.02 enrichment R. Regarding B13, the binding signal was 0.817 enrichment R.

As for B14, the binding signal came out at 1.43 enrichment R.
